Laboratory results as given in article PMC12136788.
The other results are listed elsewhere or left out.

B1: chr15:77046258:77046342:-|3pUTR|ENSG00000140391|msi1_unk|FALSE|overlapping (ssRNA)
RNA: GGGAGUUCUACAGUCCGACGAUCAAAAAUAUUUACUGUAGUCCAAUAAGAUAGCAGCUGUACAAAAUGACUAAAAUAGAUUGUAGGAUCAUAUGGCGUAUAUCUUGGUUCAUCUUCAAAAUCAGAGACUGAGCUUUGAAACUACAACAGAGGAUUGAGCAUCA
B2: chr19:46720021:46720126:-|3pUTR|ENSG00000090372|unk|total|mutant (ssRNA)
RNA: GGGAGUUCUACAGUCCGACGAUCGCCGCUCCUGGUAUCAGAGCUGCUUUCCAGAGGGCAGCACAGCCAGGGCCGGGUGUCUUCCGGGAUCAGUUUUUCCAAGACUCCAGAAGGUGCCAGGUUCUCCCCUUGAGCUCCUGCUCCCAACAGAGGAUUGAGCAUCA
B3: chr3:127036549:127036650:+|3pUTR|ENSG00000114554|msi1|FALSE|unique (ssRNA)
RNA: GGGAGUUCUACAGUCCGACGAUCGUCUACUGGGACAGCAGUCUCCGAGCUACUCCGUACCUCCCUCUGCCAGGUCGUGGAGUUAGGCCCCAGUCCCUACUUGUCACUGGUUCCCACUGUGCUCCUAACUGUGCAGCACCUGGGCAACAGAGGAUUGAGCAUCA
B4: chr17:744420:744865:-|three_prime_utr|ENSG00000179409|control|control|control (ssRNA)
RNA: GGGAGUUCUACAGUCCGACGAUCAUCAGCAGCUUCUUACCUGUGCGGGAGCGAAAAAGCUGGGCUUCAACAUGGCAGGUCUGUAGGGGUCAGACCCGAGCAGCCUGGACUUUACAGUUAUGUGAAACUGUCCACAAAAAGUCACAACAGAGGAUUGAGCAUCA
B5: chr14:92003418:92006448:-|CDS|ENSG00000100815|control|control|control (ssRNA)
RNA: GGGAGUUCUACAGUCCGACGAUCGGAGAGAAUAUUAAUUCUAGAGAUGGACAUUGGCAAACUAAAAGGAGAAAAUGAAAAAAUAGUGGAAACAUACAGGGGAAAGGAAACAGAAUAUCAAGCGUUACAAGAGACUAACAUGAACAACAGAGGAUUGAGCAUCA
B6: chr20:7981316:7981417:-|3pUTR|ENSG00000125827|unk|total|mutant (ssRNA)
RNA: GGGAGUUCUACAGUCCGACGAUCUAAGUUUUCUAAGCAAUAUUUUUCAAGCCAGAAGUCCUCUAAGUCUUGCCAGUACAAGGCCGUCUUGUGAAGAAAAGUUGAAUACUGUUUUGUUUUCAUCUCAAGGGGUUCCCUGGGUCUCAACAGAGGAUUGAGCAUCA
B7: chr15:50499333:50499363:+|3pUTR|ENSG00000138592|msi1_unk|total|mutant (ssRNA)
RNA: GGGAGUUCUACAGUCCGACGAUCCAGGUACCAUUUAUUUCAAAACAACUUUUUCCGUCUGCUCCAAAGUUAAAAUAAUUAACCCGCUAAGCAUUAUUAUUCGACUGGUCUAAAAACUAUUGUUAUCUUUUUUUUUUCCUUUUCCAACAGAGGAUUGAGCAUCA
B8: chrX:65741840:65741941:+|3pUTR|ENSG00000147065|msi1|FALSE|unique (ssRNA)
RNA: GGGAGUUCUACAGUCCGACGAUCAAAUUGUUUUUGGAGGGGUUUAUGCUCAAUCCAUGUUCUAUUUCAGUGCCAAUAAAAUUUAGGAAGACUUCACAGUGACUCAAUCGUUCUUUGUGGUAUGAGUGGGUAGCUGUAAGAUAUCAACAGAGGAUUGAGCAUCA
B9: ENSG00000198589:be:win_8201|CDS|ENSG00000198589|bound_else_gene|NA|bound_elsewhere_windowed (ssRNA)
RNA: GGGAGUUCUACAGUCCGACGAUCUCAUUCAGGCUUCAAGAGAGGGUCAUUGUGUCAUAUUCUAUGAAAACGGCCUCUUCUGUACAUUCAGUGUGAAUGGAAAACUCCAGGCCACGAUGGAAACAGAUGAUAACAUAAGAGCCACAACAGAGGAUUGAGCAUCA
B10: chr19:35623844:35623945:+|3pUTR|ENSG00000249115|unk|total|mutant (ssRNA)
RNA: GGGAGUUCUACAGUCCGACGAUCUGUGUCAAGAGCAGCGGCGGUGACGCAGGUGCCGAGAUUUGUCAGAGCUCAUGCCGUUGCCGUCUUAAGGCCUGUGCAUUUCACUGCGUGGGUUACUCAAUUUAUAAAGCAAAGCCCUUACAACAGAGGAUUGAGCAUCA
B11: chr1:217137657:217137758:-|5pUTR|ENSG00000196482|msi1|total|mutant (ssRNA)
RNA: GGGAGUUCUACAGUCCGACGAUCCGGGCUCCAGGCCGGGCUCCCUAAACGGGUCAGCAAUUGGAGCGGGAAGGCCGGACAGGCCGGUGGCGUGGGGCGCACAAGCCCGGCAGCGAUAACCGGGGACGUCUGUACUGCUUCCAACAACAGAGGAUUGAGCAUCA
B12: ENSG00000136451:be:win_3201|3pUTR|ENSG00000136451|bound_else_gene|NA|bound_elsewhere_windowed (ssRNA)
RNA: GGGAGUUCUACAGUCCGACGAUCAACAGUUCUAGGGGGUUGAACUACAUAGUAAAAAAAUAAAAUAAAUAGUACUUAGUGUAAAAUAAUUUUAUAAAUGAUCUUUUGUACUUUAGGACAUUAAAUUGUACAACUUUUGUAUAUCAACAGAGGAUUGAGCAUCA
B13: chr1:88684422:88684524:+|5pUTR|ENSG00000065243|unk|total|mutant (ssRNA)
RNA: GGGAGUUCUACAGUCCGACGAUCUCGAUGAACCGGACGGAAUAAGCCGCGCCUCCAGCAGGGGCUGCGCCUCCAUGAAUCCCCCGUUGUUUUUUUUUUUUUCUUUCUCUCCCCUCUCCUCACCCCCACCCCGAGCCCCGUCCCCAACAGAGGAUUGAGCAUCA
B14: chr5:10679541:10679642:-|3pUTR|ENSG00000112977|msi1|FALSE|unique (ssRNA)
RNA: GGGAGUUCUACAGUCCGACGAUCCUUCAAGGCCCUGUCACCACCUAUUUCCUGAUCAGUUGGUAUAAACUGAGGGUGGCUUUUAGAGACCCAGACUUGGUUGGCAGCGCUGCCAUGGAACACCCCAGCAAGCACCUCCCAGCCCAACAGAGGAUUGAGCAUCA
B15: chr7:65954205:65954306:+|CDS_3pUTR|ENSG00000196715|msi1_unk|total|mutant (ssRNA)
RNA: GGGAGUUCUACAGUCCGACGAUCCAUCUGCAUCGUCACGUACGUGCUGAACUUCCUUCUUCUCAUUAUCAACUACAAACGACCCGUUUACUUGAACGAGGCCUGGAAGCGGCAGCUGCAACCCAAGCAGGACUGACGCCCGACCAACAGAGGAUUGAGCAUCA
B16: ENSG00000035403:stop:overlap|stop_codon|ENSG00000035403|stop_codon|NA|stop_codon (ssRNA)
RNA: GGGAGUUCUACAGUCCGACGAUCAAAUUCGAACAGAUGCUGGAUUUACACUGCGCUGGGUUAGAAAGACUCCCUGGUACCAGUAGGCACCUGGCUGAGCCUGGCUGGCACAGAAACCUCUACUAAAAAGAAGGAAAAUGAUCUCAACAGAGGAUUGAGCAUCA
B17: chr1:32196422:32196614:+|3pUTR|ENSG00000084652|msi1|FALSE|unique (ssRNA)
RNA: GGGAGUUCUACAGUCCGACGAUCACAGUUGUUUCUGUGUCCUGUUCUACCCCCACUCCAGUACAUAACUACUAUGUACUGUGUAGAGCCAUUCUAUAUGCUGAAUGUUCUGCUGUUGCAAACUUGCCAGGGUAUUAGCCAGUGCAACAGAGGAUUGAGCAUCA
B18: chr12:4445224:4445570:-|CDS|ENSG00000111241|control|control|control (ssRNA)
RNA: GGGAGUUCUACAGUCCGACGAUCCAACACGCUGCUGGACUCGAGGGGCUGGGGCACCCUGCUGUCCAGGUCUCGCGCCGGGCUAGCUGGAGAGAUUGCCGGGGUGAACUGGGAAAGUGGCUAUUUGGUGGGGAUCAAGCGGCACAACAGAGGAUUGAGCAUCA
B19: chr11:28036422:28036524:-|CDS|ENSG00000121621|unk|FALSE|unique (ssRNA)
RNA: GGGAGUUCUACAGUCCGACGAUCCAGCUCAAUGAUUCUCUUAGCAAAGAACUUCAGCCUAUUGUAUAUACACCAGAAGACUGUAGAAAAGCUUUUCAAAAUCCGUCUACAGUAACCUUAAUGAAACCAUCAUCAUUUACUACACAACAGAGGAUUGAGCAUCA
B20: chr21:31659700:31659757:+|5pUTR|ENSG00000142168|msi1_unk|total|mutant (ssRNA)
RNA: GGGAGUUCUACAGUCCGACGAUCCGAGGCGCGGAGGUCUGGCCUAUAAAGCCGUCGCGGAGACGGGGUGCUGGUUUGCGUCGCCGUCUCCUGCAGCGUCUGGGGUUUCCGUUGCAGUCCUCGGAACCAGGACCUCGGCGUGGCCAACAGAGGAUUGAGCAUCA
B21: chr10:97759570:97759671:+|3pUTR|ENSG00000155256|msi1|total|mutant (ssRNA)
RNA: GGGAGUUCUACAGUCCGACGAUCGACUGAGCGAGUGGACUCCGGGCUGGGCAGGCAGCCGCCACCAGAGGGCAGCAGCGAACCCGGCCAGGCCUGACUGGGGUCUGAAGAUCAGGGUCAGUGUGGCUGUGCCUGGGAAUUCCACAACAGAGGAUUGAGCAUCA
B22: chr5:16663783:16663884:-|3pUTR|ENSG00000145555|msi1|FALSE|bound_elsewhere (ssRNA)
RNA: GGGAGUUCUACAGUCCGACGAUCUGAGGAUACAAAAUUCACAGAUGCUCAAGUCCCUGCUAUACAGUGGUAUAAUAUUUGCAUAGAACCUGCACACAUCUUUCCUUACCCUUUAAAUCAUCUCCAGGUUACAGAUACCUAGCACAACAGAGGAUUGAGCAUCA

These binders were tested against MSI1 full-length (mouse, UniProt Q61474 1-362) (assay: nsRBNS (natural sequence RNA bind-n-seq); RBNS binding buffer (assumed for nsRBNS): 25 mM Tris pH 7.5, 150 mM KCl, 3 mM MgCl2, 0.01% Triton X-100, 500 ug/ml BSA, 20 U/ml SUPERase-In, 4 C; UNK is unkempt and MSI1 is Musashi-1; names of the RNAs are library labels; protein concentration not given here; high values mean tight binding).
Chain of UniProt Q61474 (Q61474 whole entry): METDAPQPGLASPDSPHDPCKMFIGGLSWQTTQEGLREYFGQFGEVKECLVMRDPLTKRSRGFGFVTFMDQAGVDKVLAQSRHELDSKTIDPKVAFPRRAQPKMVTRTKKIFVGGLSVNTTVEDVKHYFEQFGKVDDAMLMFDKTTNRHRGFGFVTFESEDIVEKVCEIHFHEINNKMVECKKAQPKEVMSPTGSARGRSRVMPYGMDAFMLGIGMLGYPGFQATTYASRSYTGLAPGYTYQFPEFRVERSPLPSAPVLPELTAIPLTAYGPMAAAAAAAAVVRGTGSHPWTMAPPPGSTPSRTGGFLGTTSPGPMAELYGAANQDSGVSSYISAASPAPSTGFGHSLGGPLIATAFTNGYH
In the case of B1, the binding signal is reported as 9.31 enrichment R.
B2 was tested, and the binding signal was 0.465 enrichment R.
B3 gave a binding signal of 0.508 enrichment R.
B4 gave a binding signal of 0.334 enrichment R.
With B5 the binding signal was 0.724 enrichment R.
Work on B6 yielded a binding signal of 0.304 enrichment R.
B7 gave a binding signal of 4.71 enrichment R.
B8 showed a binding signal of 0.575 enrichment R.
B9 was tested, and the binding signal was 0.285 enrichment R.
Work on B10 yielded a binding signal of 0.357 enrichment R.
B11 showed a binding signal of 0.456 enrichment R.
In the case of B12, the binding signal is reported as 23.1 enrichment R.
Work on B13 yielded a binding signal of 1.19 enrichment R.
B14 was tested, and the binding signal was 0.702 enrichment R.
Work on B15 yielded a binding signal of 0.462 enrichment R.
Binder B16 has a binding signal of 0.927 enrichment R.
Work on B17 yielded a binding signal of 0.443 enrichment R.
Work on B18 yielded a binding signal of 0.512 enrichment R.
B19 showed a binding signal of 0.992 enrichment R.
B20 showed a binding signal of 0.312 enrichment R.
In the case of B21, the binding signal is reported as 0.309 enrichment R.
For B22, the binding signal was 2.21 enrichment R.
